Measurements: the RNAGym collection of RNA variant scans (doi:10.1101/gad.245936.114)
Variants at the floor of the assay are shown more often than the library holds them.

B1: tRNA (parent)
chain: CUCUCGGUAGCCAAGUUGGUUUAAGGCGCAAGACUUUAAUUUAUCACUACGAAAUCUUGAGAUCGGGCGUUCGACUCGCCCCCGGGAGAUUUUUUCCUCGAGCAA

Variants of: B1
Experiment: nonsense suppression (GFP-seq) (ratio to wild type); higher = more function; SUP4oc tRNA, yeast GFP reporter sort-seq
Outline: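 To measure nonsense suppression, tRNA variants from a library carrying ~3% random mutations were integrated into the yeast genome alongside RFP and a GFP ochre reporter under galactose control. Growth took place in raffinose/galactose medium supplemented with 80 mg/L adenine, followed by sorting into GFP/RFP bins and Illumina sequencing of each bin (phred ≥30). For each variant with ≥100 reads and ≥30 cells, the bin median GFP/RFP values were weighted by its estimated cell share per bin and referenced to the unmutated parent tRNA.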

Variant | nonsense suppression
C34G U55C C77A | ≤ 0.026
C34G U57C C68A | ≤ 0.026
C34G U58G U76A | ≤ 0.026
C34G U70C | ≤ 0.026
C34G U70G A87C | ≤ 0.026
C34G U71A | ≤ 0.026
C34G U71A G78C G85A | ≤ 0.026
C34G U71G | ≤ 0.026
C34G U76C | ≤ 0.026
C34U A54C C56G G73A G88C | ≤ 0.026
C34U A54C G86C | ≤ 0.026
C34U A54G C77A | ≤ 0.026
C34U A54G G61A C68A | ≤ 0.026
C34U A60C C72A | ≤ 0.026
C34U A60C C72G | ≤ 0.026
C34U A60G | 0.0428
C34U A60U G66A | ≤ 0.026
C34U A74G | ≤ 0.026
C34U A74G G86A | ≤ 0.026
C34U A87C | ≤ 0.026
C34U A89G | ≤ 0.026
C34U C56A C82G | ≤ 0.026
C34U C56U G88A | ≤ 0.026
C34U C68U | ≤ 0.026

Variant | nonsense suppression
C34U C81A G88C | ≤ 0.026
C34U G59A | ≤ 0.026
C34U G61C C79G C82G | ≤ 0.026
C34U G61C C80G C81U | ≤ 0.026
C34U G65A G66U | ≤ 0.026
C34U G65A U70A | ≤ 0.026
C34U G67A | ≤ 0.026
C34U G67C | ≤ 0.026
C34U G67U | ≤ 0.026
C34U G69C | ≤ 0.026
C34U G85A | ≤ 0.026
C34U G85U | ≤ 0.026
C34U G85U G86U | ≤ 0.026
C34U G88A | ≤ 0.026
C34U G88C | ≤ 0.026
C34U U35G | ≤ 0.026
C34U U35G C79G | ≤ 0.026
C34U U55A | ≤ 0.026
C34U U57A G59C | ≤ 0.026
C34U U57C | ≤ 0.026
C34U U57C G61A | ≤ 0.026
C34U U58A C64G | ≤ 0.026
C34U U63C | ≤ 0.026
C34U U63C C75A C81G G84C | ≤ 0.026

Variant | nonsense suppression
C34U U63C C80U | ≤ 0.026
C34U U63C G84A G88U | ≤ 0.026
C34U U63C G84U | ≤ 0.026
C34U U70A C77G | ≤ 0.026
C34U U70C | ≤ 0.026
C34U U71A | ≤ 0.026
U35A A62G | ≤ 0.026
U35A A89G | ≤ 0.026
U35A A89U | ≤ 0.026
U35A C56G G69A | ≤ 0.026
U35A C56U | ≤ 0.026
U35A C72G G86U | ≤ 0.026
U35A C77A | ≤ 0.026
U35A C81G | ≤ 0.026
U35A G61A | ≤ 0.026
U35A G61C | ≤ 0.026
U35A G65U | ≤ 0.026
U35A G66A G84C | ≤ 0.026
U35A G67A G86C | ≤ 0.026
U35A G67U | ≤ 0.026
U35A G69A | ≤ 0.026
U35A G73C | ≤ 0.026
U35A G85C | ≤ 0.026
U35A G88U | ≤ 0.026

Variant | nonsense suppression
U35A U55A | ≤ 0.026
U35A U55C | ≤ 0.026
U35A U55G G61C C68A | ≤ 0.026
U35A U57G G65U C82A | ≤ 0.026
U35A U63A C64A U70G | ≤ 0.026
U35A U63C G69U G85C | ≤ 0.026
U35A U70C C82G A87U | ≤ 0.026
U35A U71A A87C | ≤ 0.026
U35C A54C U70G G73A | ≤ 0.026
U35C A62G | ≤ 0.026
U35C A62U C68U | ≤ 0.026
U35C A89C | ≤ 0.026
U35C C56U A62U | ≤ 0.026
U35C C68A | ≤ 0.026
U35C C77U | ≤ 0.026
U35C C79A | ≤ 0.026
U35C C80G | ≤ 0.026
U35C C80U | ≤ 0.026
U35C C82A | ≤ 0.026
U35C C82U | ≤ 0.026
U35C C83G | ≤ 0.026
U35C G59C | ≤ 0.026
U35C G65C | ≤ 0.026
U35C G65U | ≤ 0.026

Variant | nonsense suppression
U35C G67A | ≤ 0.026
U35C G84C | ≤ 0.026
U35C U55G G66U C81U | ≤ 0.026
U35C U57A G61C | ≤ 0.026
U35C U57A U76A | ≤ 0.026
U35C U57C | ≤ 0.026
U35C U63G | 0.0352
U35C U71G | ≤ 0.026
U35G A54C C77G | ≤ 0.026
U35G A54G | ≤ 0.026
U35G A54G U57A G84C | ≤ 0.026
U35G A60C G66A C79U | ≤ 0.026
U35G C56G U76C | ≤ 0.026
U35G C72A A74U G84A | ≤ 0.026
U35G C72G | ≤ 0.026
U35G C75A | ≤ 0.026
U35G C77A | ≤ 0.026
U35G G59A G61U | ≤ 0.026
U35G G59C | ≤ 0.026
U35G G59U | ≤ 0.026
U35G G59U A60G | ≤ 0.026
U35G G59U C64G | ≤ 0.026
U35G G65C U70A | ≤ 0.026
U35G G66C C75G C77A | ≤ 0.026

Variant | nonsense suppression
U35G G67U U71G | ≤ 0.026
U35G G69C C82G | ≤ 0.026
U35G G73C | ≤ 0.026
U35G G73C A89G | ≤ 0.026
U35G G84U | ≤ 0.026
U35G G85U | ≤ 0.026
U35G G86C | ≤ 0.026
U35G G88U | ≤ 0.026
U35G U55A | ≤ 0.026
U35G U55C | ≤ 0.026
U35G U55C C68G U71G | ≤ 0.026
U35G U55C G61C G73U | ≤ 0.026
U35G U57A | ≤ 0.026
U35G U58A | ≤ 0.026
U35G U58A U76C | ≤ 0.026
U35G U63G | ≤ 0.026
U35G U70A C79A | ≤ 0.026
U35G U70A U76G | ≤ 0.026
U35G U70G | ≤ 0.026
U35G U71A U76G G86U | ≤ 0.026
U35G U71G U76G | ≤ 0.026
A54C A62G G69A | ≤ 0.026
A54C A74C | ≤ 0.026
A54C A87G | 0.59

Variant | nonsense suppression
A54C C56U U58A G66C | ≤ 0.026
A54C C64U | 0.0402
A54C C68G | ≤ 0.026
A54C C68U U70A U76C | ≤ 0.026
A54C C75G | 1.15
A54C C79G | ≤ 0.026
A54C C80G | 0.0733
A54C C81A | ≤ 0.026
A54C C81U | 0.21
A54C C82G | ≤ 0.026
A54C C82U | 0.211
A54C G59A A60C G73U | ≤ 0.026
A54C G59U | ≤ 0.026
A54C G61A | 0.334
A54C G61U G65A | ≤ 0.026
A54C G65U | 0.0425
A54C G67C | ≤ 0.026
A54C G69C C75U U76G G85C | ≤ 0.026
A54C G84A | ≤ 0.026
A54C G85C | 0.0904
A54C G86U | ≤ 0.026
A54C U55A G61C | ≤ 0.026
A54C U55G | ≤ 0.026
